Test results from patent publication US20170368144A1 (ALKERMES, published 2017).

Columns and labels:
[1] = biological target: T1, IL-10 receptor (two IL-10R1 and two IL-10R2 receptor chains) (UniProt Q61727 17-575; Q61190 20-349, limits assumed); assay: cell-based or functional assay
T1 sequence (looked up) 1: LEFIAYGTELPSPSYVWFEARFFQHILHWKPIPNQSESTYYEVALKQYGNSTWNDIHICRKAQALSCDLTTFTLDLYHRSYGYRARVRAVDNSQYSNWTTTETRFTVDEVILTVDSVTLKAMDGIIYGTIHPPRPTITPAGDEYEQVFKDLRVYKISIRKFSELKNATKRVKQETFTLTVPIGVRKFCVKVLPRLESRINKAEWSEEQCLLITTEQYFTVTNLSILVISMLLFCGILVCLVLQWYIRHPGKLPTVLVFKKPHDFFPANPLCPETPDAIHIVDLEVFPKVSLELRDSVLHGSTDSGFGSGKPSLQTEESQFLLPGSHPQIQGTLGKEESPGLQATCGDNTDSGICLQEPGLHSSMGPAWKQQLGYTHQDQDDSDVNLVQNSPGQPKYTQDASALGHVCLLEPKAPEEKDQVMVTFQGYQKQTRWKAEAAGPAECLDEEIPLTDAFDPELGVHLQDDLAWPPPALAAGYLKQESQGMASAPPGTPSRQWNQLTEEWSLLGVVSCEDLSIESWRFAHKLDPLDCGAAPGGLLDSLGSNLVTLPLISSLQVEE
T1 sequence (looked up) 2: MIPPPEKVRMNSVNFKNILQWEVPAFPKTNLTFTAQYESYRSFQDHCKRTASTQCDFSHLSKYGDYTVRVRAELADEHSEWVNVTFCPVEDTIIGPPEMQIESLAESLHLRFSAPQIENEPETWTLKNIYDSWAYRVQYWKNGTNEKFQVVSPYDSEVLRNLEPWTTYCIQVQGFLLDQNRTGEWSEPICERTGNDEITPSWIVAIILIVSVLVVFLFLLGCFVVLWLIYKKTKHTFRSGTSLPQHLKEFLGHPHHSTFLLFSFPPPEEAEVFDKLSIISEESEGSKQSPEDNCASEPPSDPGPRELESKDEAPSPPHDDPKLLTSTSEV

IL-10R2 receptor chain = biological target: T2, IL-10R2 receptor chain (UniProt Q61190 20-349, limits assumed); assay: cell-based or functional assay
T2 sequence (looked up): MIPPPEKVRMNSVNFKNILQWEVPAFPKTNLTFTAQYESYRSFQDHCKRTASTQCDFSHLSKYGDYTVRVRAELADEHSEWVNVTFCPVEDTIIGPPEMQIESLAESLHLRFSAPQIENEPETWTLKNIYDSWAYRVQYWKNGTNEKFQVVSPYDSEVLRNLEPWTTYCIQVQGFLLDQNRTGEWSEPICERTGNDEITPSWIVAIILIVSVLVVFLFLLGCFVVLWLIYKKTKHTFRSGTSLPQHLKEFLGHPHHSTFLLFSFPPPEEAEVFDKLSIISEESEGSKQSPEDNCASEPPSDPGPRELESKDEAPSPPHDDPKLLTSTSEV

| Binder | MC/9 (pM): EC50, proliferation of the mouse mast cell line MC/9 [1] [pM] | PBMC + LPS (pM): IC50, inhibition of TNFα production in LPS stimulated C57BL/6 mouse PBMCs [1] [pM] | MC/9 (pM): EC50, proliferation of the mouse mast cell line MC/9 (IL-10R2 receptor chain) [pM] | PBMC + LPS (pM): IC50, inhibition of TNFα production in LPS stimulated C57BL/6 mouse PBMCs (IL-10R2 receptor chain) [pM] |
| --- | --- | --- | --- | --- |
| I87A:linker:I87A (vIL10 mutant) (Fc fusion) SPGQGTQSENSCTHFPGNLPNMLRDLRDAFSRVKTFFQMKDQLDNLLLKESLLEDFKGYLGCQALSEMIQFYLEEVMPQAENQDPDAKAHVNSLGENLKTLRLRLRRCHRFLPCENKSKAVEQVKNAFNKLQEKGIYKAMSEFDIFINYIEAYMTMKIRNGGSGGGGSGGSPGQGTQSENSCTHFPGNLPNMLRDLRDAFSRVKTFFQMKDQLDNLLLKESLLEDFKGYLGCQALSEMIQFYLEEVMPQAENQDPDAKAHVNSLGENLKTLRLRLRRCHRFLPCENKSKAVEQVKNAFNKLQEKGIYKAMSEFDIFINYIEAYMTMKIRNGGGGSGGGGSRTVAAPSVFIFPPSDEQLKSGTASVVCLLNNFYPREAKVQWKVDNALQSGNSQESVTEQDSKDSTYSLSSTLTLSKADYEKHKVYACEVTHQGLSSPVTKSFNRGECGGGGSGGGGSGGGGSGGGGSASTKGPSVFPLAPSSKSTSGGTAALGCLVKDYFPEPVTVSWNSGALTSGVHTFPAVLQSSGLYSLSSVVTVPSSSLGTQTYICNVNHKPSNTKVDKRV[human IgG1 Fc cut from this listing] | 1780 | 0.38 |  |  |
| I87A:linker:wtIL-10 (vIL10 mutant) (Fc fusion) SPGQGTQSENSCTHFPGNLPNMLRDLRDAFSRVKTFFQMKDQLDNLLLKESLLEDFKGYLGCQALSEMIQFYLEEVMPQAENQDPDAKAHVNSLGENLKTLRLRLRRCHRFLPCENKSKAVEQVKNAFNKLQEKGIYKAMSEFDIFINYIEAYMTMKIRNGGSGGGGSGGSPGQGTQSENSCTHFPGNLPNMLRDLRDAFSRVKTFFQMKDQLDNLLLKESLLEDFKGYLGCQALSEMIQFYLEEVMPQAENQDPDIKAHVNSLGENLKTLRLRLRRCHRFLPCENKSKAVEQVKNAFNKLQEKGIYKAMSEFDIFINYIEAYMTMKIRNGGGGSGGGGSRTVAAPSVFIFPPSDEQLKSGTASVVCLLNNFYPREAKVQWKVDNALQSGNSQESVTEQDSKDSTYSLSSTLTLSKADYEKHKVYACEVTHQGLSSPVTKSFNRGECGGGGSGGGGSGGGGSGGGGSASTKGPSVFPLAPSSKSTSGGTAALGCLVKDYFPEPVTVSWNSGALTSGVHTFPAVLQSSGLYSLSSVVTVPSSSLGTQTYICNVNHKPSNTKVDKRV[human IgG1 Fc cut from this listing] | 107 | 0.03 |  |  |
| M22A:linker:wtIL-10 (R2 mutant) (Fc fusion) SPGQGTQSENSCTHFPGNLPNALRDLRDAFSRVKTFFQMKDQLDNLLLKESLLEDFKGYLGCQALSEMIQFYLEEVMPQAENQDPDIKAHVNSLGENLKTLRLRLRRCHRFLPCENKSKAVEQVKNAFNKLQEKGIYKAMSEFDIFINYIEAYMTMKIRNGGSGGGGSGGSPGQGTQSENSCTHFPGNLPNMLRDLRDAFSRVKTFFQMKDQLDNLLLKESLLEDFKGYLGCQALSEMIQFYLEEVMPQAENQDPDIKAHVNSLGENLKTLRLRLRRCHRFLPCENKSKAVEQVKNAFNKLQEKGIYKAMSEFDIFINYIEAYMTMKIRNGGGGSGGGGSRTVAAPSVFIFPPSDEQLKSGTASVVCLLNNFYPREAKVQWKVDNALQSGNSQESVTEQDSKDSTYSLSSTLTLSKADYEKHKVYACEVTHQGLSSPVTKSFNRGECGGGGSGGGGSGGGGSGGGGSASTKGPSVFPLAPSSKSTSGGTAALGCLVKDYFPEPVTVSWNSGALTSGVHTFPAVLQSSGLYSLSSVVTVPSSSLGTQTYICNVNHKPSNTKVDKRV[human IgG1 Fc cut from this listing] |  |  | 47 | 0.077 |
| M22A:linker:M22A (R2 mutant) (Fc fusion) SPGQGTQSENSCTHFPGNLPNALRDLRDAFSRVKTFFQMKDQLDNLLLKESLLEDFKGYLGCQALSEMIQFYLEEVMPQAENQDPDIKAHVNSLGENLKTLRLRLRRCHRFLPCENKSKAVEQVKNAFNKLQEKGIYKAMSEFDIFINYIEAYMTMKIRNGGSGGGGSGGSPGQGTQSENSCTHFPGNLPNALRDLRDAFSRVKTFFQMKDQLDNLLLKESLLEDFKGYLGCQALSEMIQFYLEEVMPQAENQDPDIKAHVNSLGENLKTLRLRLRRCHRFLPCENKSKAVEQVKNAFNKLQEKGIYKAMSEFDIFINYIEAYMTMKIRNGGGGSGGGGSRTVAAPSVFIFPPSDEQLKSGTASVVCLLNNFYPREAKVQWKVDNALQSGNSQESVTEQDSKDSTYSLSSTLTLSKADYEKHKVYACEVTHQGLSSPVTKSFNRGECGGGGSGGGGSGGGGSGGGGSASTKGPSVFPLAPSSKSTSGGTAALGCLVKDYFPEPVTVSWNSGALTSGVHTFPAVLQSSGLYSLSSVVTVPSSSLGTQTYICNVNHKPSNTKVDKRV[human IgG1 Fc cut from this listing] |  |  | 541 | 0.73 |
| wtIL-10:linker:M22A (R2 mutant) (Fc fusion) SPGQGTQSENSCTHFPGNLPNMLRDLRDAFSRVKTFFQMKDQLDNLLLKESLLEDFKGYLGCQALSEMIQFYLEEVMPQAENQDPDIKAHVNSLGENLKTLRLRLRRCHRFLPCENKSKAVEQVKNAFNKLQEKGIYKAMSEFDIFINYIEAYMTMKIRNGGSGGGGSGGSPGQGTQSENSCTHFPGNLPNALRDLRDAFSRVKTFFQMKDQLDNLLLKESLLEDFKGYLGCQALSEMIQFYLEEVMPQAENQDPDIKAHVNSLGENLKTLRLRLRRCHRFLPCENKSKAVEQVKNAFNKLQEKGIYKAMSEFDIFINYIEAYMTMKIRNGGGGSGGGGSRTVAAPSVFIFPPSDEQLKSGTASVVCLLNNFYPREAKVQWKVDNALQSGNSQESVTEQDSKDSTYSLSSTLTLSKADYEKHKVYACEVTHQGLSSPVTKSFNRGECGGGGSGGGGSGGGGSGGGGSASTKGPSVFPLAPSSKSTSGGTAALGCLVKDYFPEPVTVSWNSGALTSGVHTFPAVLQSSGLYSLSSVVTVPSSSLGTQTYICNVNHKPSNTKVDKRV[human IgG1 Fc cut from this listing] |  |  | 38 | 0.045 |
| wtIL-10:linker:I87A (vIL10 mutant) (Fc fusion) SPGQGTQSENSCTHFPGNLPNMLRDLRDAFSRVKTFFQMKDQLDNLLLKESLLEDFKGYLGCQALSEMIQFYLEEVMPQAENQDPDIKAHVNSLGENLKTLRLRLRRCHRFLPCENKSKAVEQVKNAFNKLQEKGIYKAMSEFDIFINYIEAYMTMKIRNGGSGGGGSGGSPGQGTQSENSCTHFPGNLPNMLRDLRDAFSRVKTFFQMKDQLDNLLLKESLLEDFKGYLGCQALSEMIQFYLEEVMPQAENQDPDAKAHVNSLGENLKTLRLRLRRCHRFLPCENKSKAVEQVKNAFNKLQEKGIYKAMSEFDIFINYIEAYMTMKIRNGGGGSGGGGSRTVAAPSVFIFPPSDEQLKSGTASVVCLLNNFYPREAKVQWKVDNALQSGNSQESVTEQDSKDSTYSLSSTLTLSKADYEKHKVYACEVTHQGLSSPVTKSFNRGECGGGGSGGGGSGGGGSGGGGSASTKGPSVFPLAPSSKSTSGGTAALGCLVKDYFPEPVTVSWNSGALTSGVHTFPAVLQSSGLYSLSSVVTVPSSSLGTQTYICNVNHKPSNTKVDKRV[human IgG1 Fc cut from this listing] | 346 | 0.18 |  |  |
